# Measurements from ChEMBL document CHEMBL5606460, “ASAP - DENV-2 NS2B-NS3 protease fluorescence single point” (2024).
# Out of some 2,000 compounds screened, about 110 (5.5%) showed an effect of 50% or more. The list shows a part of the results.
# Target: Genome polyprotein (dengue virus type 2) (UniProt P29990)
# [1] = Thailand/16681/1984, Concentration 25.0 uM, Number of replicates 1.0
structure (smiles),measurement,setting,value
CNC(=O)c1cc(Cl)ccc1NS(=O)(=O)c1ccc(OC)cc1,inhibition,"Thailand/16681/1984, Concentration 49.5 uM, Number of replicates 2.0, Standard deviation 1.598704816821166 %",-9.51%
COc1ccccc1C1CCN(C(=O)C2CCN(c3ccc(C=O)cc3)CC2)CC1,inhibition,[1],12.3%
Cc1ccc([C@H](CCO)NC(=O)C2CCN(c3ccc(C=O)cc3)CC2)cc1,inhibition,[1],11.9%
O=Cc1ccc(N2CCC(C(=O)Nc3cc(Cl)cc([N+](=O)[O-])c3O)CC2)cc1,inhibition,[1],90.5%
CN1CCN(CCCNC(=O)C2CCN(c3ccc(C=O)cc3)CC2)CC1,inhibition,[1],6.58%
O=Cc1ccc(N2CCC(C(=O)N3CCN(c4nsc5ccccc45)CC3)CC2)cc1,inhibition,[1],9.15%
CS(=O)(=O)C1(CNC(=O)[C@]2(c3ccc(F)cc3)CCCNC2)CC1,inhibition,"Thailand/16681/1984, Concentration 49.5 uM, Number of replicates 2.0, Standard deviation 0.4494983310048074 %",-2.19%
same,inhibition,"Thailand/16681/1984, Concentration 99.01 uM, Number of replicates 2.0, Standard deviation 1.364622990359298 %",-1.57%
same,inhibition,"Thailand/16681/1984, Concentration 198.0 uM, Number of replicates 2.0, Standard deviation 0.44585663255922364 %",-0.527%
COc1ccc(NC(=O)C2CCN(c3ccc(C=O)cc3)CC2)cc1C(F)(F)F,inhibition,[1],1.29%
Nc1nccc(N2CCN(c3ncnc4sccc34)CC2)n1,inhibition,"Thailand/16681/1984, Concentration 49.5 uM, Number of replicates 2.0, Standard deviation 1.3096000267472347 %",-3.4%
same,inhibition,"Thailand/16681/1984, Concentration 99.01 uM, Number of replicates 2.0, Standard deviation 1.6640502179831234 %",-2.5%
same,inhibition,"Thailand/16681/1984, Concentration 198.0 uM, Number of replicates 2.0, Standard deviation 1.511077135494772 %",-2.22%
CNC(=O)c1ccccc1NS(=O)(=O)c1ccc(Oc2ccccc2Cl)cc1,inhibition,"Thailand/16681/1984, Concentration 49.5 uM, Number of replicates 2.0, Standard deviation 0.8338499147497574 %",0.494%
same,inhibition,"Thailand/16681/1984, Concentration 99.01 uM, Number of replicates 2.0, Standard deviation 3.066215993073902 %",-2.05%
same,inhibition,"Thailand/16681/1984, Concentration 198.0 uM, Number of replicates 2.0, Standard deviation 2.7475277663160753 %",-6.31%
O=Cc1ccc(N2CCC(C(=O)N3CCN(C(=O)C(F)(F)F)CC3)CC2)cc1,inhibition,[1],8.59%
Cc1c(Br)cccc1NC(=O)C1CCN(c2ccc(C=O)cc2)CC1,inhibition,[1],13%
Cc1cc(CO)c2cccc(C[C@H](NC(=O)C3(C(N)=O)CC3)C(=O)O)c2n1,inhibition,"Thailand/16681/1984, Concentration 49.95 uM, Number of replicates 2.0, Standard deviation 0.8046436923600346 %",2.75%
same,inhibition,"Thailand/16681/1984, Concentration 99.9 uM, Number of replicates 2.0, Standard deviation 0.0905307562518242 %",9.53%
Cc1cnccc1NC(=O)c1c(C)nn(Cc2ccccc2)c1Cl,inhibition,"Thailand/16681/1984, Concentration 49.5 uM, Number of replicates 2.0, Standard deviation 0.09966271391867962 %",1.84%
same,inhibition,"Thailand/16681/1984, Concentration 99.01 uM, Number of replicates 2.0, Standard deviation 2.3644611293467452 %",2.97%
same,inhibition,"Thailand/16681/1984, Concentration 198.0 uM, Number of replicates 2.0, Standard deviation 3.1665773594952786 %",6.07%
COC(=O)c1cccc(C(=O)Nc2ccncc2C)c1,inhibition,"Thailand/16681/1984, Concentration 49.5 uM, Number of replicates 2.0, Standard deviation 0.22567664905073445 %",-4.08%
same,inhibition,"Thailand/16681/1984, Concentration 99.01 uM, Number of replicates 2.0, Standard deviation 0.2045809712592737 %",-3.74%
same,inhibition,"Thailand/16681/1984, Concentration 198.0 uM, Number of replicates 2.0, Standard deviation 1.3054913833669988 %",-2.98%
C[C@@H]1CN(CCNC(=O)C2CCN(c3ccc(C=O)cc3)CC2)C[C@H](C)O1,inhibition,[1],12.7%
c1ccc2c(CN3CCC(n4cccn4)CC3)c[nH]c2c1,inhibition,"Thailand/16681/1984, Concentration 49.5 uM, Number of replicates 2.0, Standard deviation 0.2206074895296473 %",-0.302%
same,inhibition,"Thailand/16681/1984, Concentration 99.01 uM, Number of replicates 2.0, Standard deviation 0.9760334935813729 %",0.283%
same,inhibition,"Thailand/16681/1984, Concentration 198.0 uM, Number of replicates 2.0, Standard deviation 0.9595395140774529 %",1.19%
